In PMC4336329 (PLoS ONE, 2015):
Hit rate of the full screen: of about 310,000 compounds, about 14,000 (4.5%) showed an effect of 50% or more. The effect is printed as a negative number. This is one part of the list.

These compounds were tested against human ether-à-go-go-related gene (hERG) potassium channel (human, UniProt Q12809) (assay: primary screen, population patch clamp on CHO cells stably expressing hERG).
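Further: peak tail current of the secondary pulse compared with the same well before compound.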

Chain of human ether-à-go-go-related gene (hERG) potassium channel (Q12809 whole entry, looked up): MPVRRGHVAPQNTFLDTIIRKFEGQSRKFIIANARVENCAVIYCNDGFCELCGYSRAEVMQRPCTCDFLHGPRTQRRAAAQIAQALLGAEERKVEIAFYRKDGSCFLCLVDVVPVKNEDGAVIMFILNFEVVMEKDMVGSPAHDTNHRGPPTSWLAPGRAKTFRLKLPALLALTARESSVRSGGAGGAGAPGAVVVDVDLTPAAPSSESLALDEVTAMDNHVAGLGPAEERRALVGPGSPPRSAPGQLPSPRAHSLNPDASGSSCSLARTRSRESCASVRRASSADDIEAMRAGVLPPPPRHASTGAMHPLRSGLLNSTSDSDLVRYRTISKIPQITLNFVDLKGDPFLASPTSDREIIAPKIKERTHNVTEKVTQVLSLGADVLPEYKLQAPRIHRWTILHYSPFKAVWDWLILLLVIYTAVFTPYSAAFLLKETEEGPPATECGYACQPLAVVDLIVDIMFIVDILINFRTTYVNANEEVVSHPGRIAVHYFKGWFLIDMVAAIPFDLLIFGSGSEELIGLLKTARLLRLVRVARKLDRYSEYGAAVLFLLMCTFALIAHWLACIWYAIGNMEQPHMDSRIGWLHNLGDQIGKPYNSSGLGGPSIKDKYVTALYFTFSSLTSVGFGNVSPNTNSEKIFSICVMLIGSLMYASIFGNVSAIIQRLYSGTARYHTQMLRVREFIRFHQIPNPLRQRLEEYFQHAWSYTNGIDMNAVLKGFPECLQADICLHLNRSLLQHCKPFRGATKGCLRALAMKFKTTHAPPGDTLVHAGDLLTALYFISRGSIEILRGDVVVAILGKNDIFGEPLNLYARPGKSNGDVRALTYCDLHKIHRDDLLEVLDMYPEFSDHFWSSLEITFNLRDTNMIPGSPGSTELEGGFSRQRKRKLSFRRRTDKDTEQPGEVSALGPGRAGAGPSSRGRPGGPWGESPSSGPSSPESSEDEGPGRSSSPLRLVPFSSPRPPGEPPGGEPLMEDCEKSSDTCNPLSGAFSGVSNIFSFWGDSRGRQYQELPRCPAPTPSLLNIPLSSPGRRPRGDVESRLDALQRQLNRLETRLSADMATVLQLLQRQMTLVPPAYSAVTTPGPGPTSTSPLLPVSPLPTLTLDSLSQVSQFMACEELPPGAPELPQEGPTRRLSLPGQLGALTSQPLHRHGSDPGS

Row | SMILES | hERG current change (%, negative = inhibition) at 10uM [%]
1 | CCN1CCN(c2cc(C)c3cc(NC(=S)N(C)Cc4ccccc4)ccc3n2)CC1 | -77.7
2 | COc1ccccc1CNC(=O)c1ccc(N(C)S(=O)(=O)c2ccc(C)cc2)cc1 | 17.5
3 | Cc1nc(Cc2nnc(SCC(=O)Nc3c(C)cccc3C)o2)cs1 | 15.1
4 | NS(=O)(=O)c1ccc(NC(=O)COc2ccc(C(=O)c3ccc(F)cc3)cc2)cc1 | -49
5 | O=C(Nc1ccc(F)cc1F)c1ccco1 | 2.94
6 | COc1ccc(CN2CC(C(=O)NCc3cccc(OC)c3)CC2=O)cc1 (stereo not drawn) | -4.84
7 | CCOC(=O)N1CCN(C(=O)CS(=O)(=O)Cc2nc(-c3cccc(OC)c3)oc2C)CC1 | -26.6
8 | O=C(N/N=C/c1ccc(O)c(O)c1)c1cccc(S(=O)(=O)N2CCCC2)c1 | -14.9
9 | CC(NC(=S)NCCc1ccccc1)C(c1cccs1)N1CCN(Cc2ccccc2)CC1 (stereo not drawn) | -41.3
10 | CC(C)NC(=O)CCn1ccc2cc(S(=O)(=O)N3CCCC3)ccc21 | 16.5
11 | CN(C)c1ccc(/C=C/c2cc[n+](C)cc2)cc1.[I-] | 2.73
12 | O=C(Nc1ccc(S(=O)(=O)Nc2ccccn2)cc1)c1ccccc1 | 15.8
13 | Cc1csc(=O)n1CCC(=O)OC(C)C(=O)Nc1ccc(N2CCOCC2)cc1 (stereo not drawn) | 11.2
14 | CCOC(=O)c1oc2cc(C)cc(C)c2c1C | 18.7
15 | COc1ccc(-n2c(-c3ccccc3Br)nc3ccccc3c2=O)cc1 | -20.9
16 | N#Cc1cc2c(nc1S(=O)(=O)Cc1ccccc1)CCCC2 | 1.48
17 | COc1cccc(CN2CC(C(=O)N(C)Cc3nc4ccc(F)cc4[nH]3)CCC2=O)c1 (stereo not drawn) | 3.99
18 | CCOc1cc(Cl)c(S(=O)(=O)NCc2cccnc2)cc1Cl | 3.6
19 | O=C(COc1ccccc1)Nc1ccc2oc(=O)ccc2c1 | 4.76
20 | O=[N+]([O-])c1cccc(/C=N/NC2CCS(=O)(=O)C2)c1 (stereo not drawn) | 11.9
21 | O=C(Nc1ccccc1)c1ccc(NCc2cccnc2)c(S(=O)(=O)N2CCOCC2)c1 | -47.8
22 | Cc1ccc2c(C)c(C(=O)NCCc3ccco3)oc2c1C | 13

Row | SMILES | hERG current change (%, negative = inhibition) at 10uM [%]
23 | CC(=O)OC1COC(n2c(O)c(N=NC(N)=S)c3ccccc32)C(OC(C)=O)C1OC(C)=O (stereo not drawn) | 15.8
24 | O=C(Oc1ccc(Br)cc1)c1n[nH]c(=O)c2ccccc12 | 22.4
25 | CCOC(=O)c1c(-c2ccc(OC)cc2)csc1/N=C/N(C)C | 2.51
26 | COCCCNC(=S)N1CCCN(c2nc3cc(C)c(C)cc3cc2C#N)CC1 | -10.2
27 | CCOc1ccc(N=Cc2c(O)cc(C)oc2=O)cc1 | 0.0703
28 | Cc1ccc(C(NC(=O)NN2CCN(C)CC2)C(Cl)Cl)cc1F (stereo not drawn) | -2.9
29 | O=C(OCn1nnc2ccccc2c1=O)c1cn(-c2ccccc2)nc1-c1cccnc1 | -11.9
30 | Cc1cccc(C)c1Nc1c(-c2ccc(N3CCOCC3)cc2)nc2ncccn12 | -19
31 | CN(CC(=O)Nc1ccc(N2CCOCC2)cc1)Cc1cc(=O)n2ccsc2n1 | 7.88
32 | CN(CCOc1ccccc1)CC(=O)Nc1ccc(Cl)cc1[N+](=O)[O-].O=C(O)C(=O)O | -8.1
33 | O=C(NC(Cc1ccccc1)C(=O)O)/C(=C\c1ccco1)NC(=O)c1ccccc1 (stereo not drawn) | 4.61
34 | O=C(CNCc1ccccn1)Nc1ccc([N+](=O)[O-])cc1C(=O)Nc1ccccc1F | -4.29
35 | CCCCOC(=O)c1[nH]c(C)c(C(=O)OC)c1C | 5.83
36 | COc1ccc(C(C(=O)NC2CCCC2)N(C(=O)CNC(=O)c2ccco2)c2cccnc2)cc1 (stereo not drawn) | 14.7
37 | Cc1ccc(N(CC(=O)NCCc2ccc(F)cc2)S(=O)(=O)c2ccc(Cl)c([N+](=O)[O-])c2)c(C)c1 | 7.41
38 | COc1cc(OC)cc(-c2cc(N3C(=O)Nc4ccccc4N3O)n[nH]2)c1 | 13.5
39 | CC1(C)Cc2[nH]c(=O)c(C#N)cc2CS1 | -7.22
40 | CS(=O)(=O)N1CCN(c2cccc(Cl)n2)CC1 | 17
41 | COc1ccccc1C1=NNC(=NCc2ccccc2)SC1 | -8.96
42 | Cc1cc(OCC(=O)O/N=C(\N)c2ccccc2)ccc1Br | 20.6
43 | O=C(CSc1nc(C2CC2)nc2ccccc12)NCc1ccc2c(c1)OCO2 | 0.0232
44 | Cc1ccc(NC(=O)[C@@H](NC(=O)c2cccc(S(=O)(=O)N3CCOCC3)c2)C(C)C)cc1C | 5.87

Row | SMILES | hERG current change (%, negative = inhibition) at 10uM [%]
45 | CN(C)/C=C(\C=O)c1ccc(Cl)cc1Cl | 13.3
46 | CCN1CC(CN(C)Cc2nc(COc3ccccc3)no2)CC1=O (stereo not drawn) | 10.2
47 | CN(Cc1nc(-c2ccc(C(F)(F)F)cc2)no1)C1CCOCC1 | -4.86
48 | COCCn1c(SCc2ccc(C(=O)OC)o2)nc2cc(Cl)ccc2c1=O | -9.42
49 | CCN(C(=O)COC(=O)C1CCN(S(=O)(=O)c2c(Cl)cccc2Cl)CC1)C1CCCCC1 | -16.9
50 | COc1ccc(NC(=S)N(CCCN2CCCCC2)Cc2cccs2)cc1 | -61
51 | COc1ccc(CC(=O)N/N=C/c2ccc(Cl)s2)cc1OC | 9.31
52 | Cc1cc(NC(=O)CSc2nc(Cc3ccc(O)cc3)c(C)[nH]2)no1 | -0.933
53 | CCOC(=O)C1CCCN(C(=O)c2ccc(OCC)cc2)C1 (stereo not drawn) | 9.13
54 | O=C(NCCc1ccccc1)c1ccc(S(=O)(=O)N2CCCC2)cc1 | -5.37
55 | COCCN(C(=O)Nc1ccc(OC)cc1OC)C1CCN(C(C)C)CC1 | 2.16
56 | Cc1nnc(SCC(=O)NC(=O)NCc2ccco2)n1Cc1ccccc1 | -6.26
57 | C=CCC1CCC/C(=N\NS(=O)(=O)c2ccc(C)cc2)C1 (stereo not drawn) | 4.26
58 | O=C(NCCCc1ccccc1)N1CCOCC1 | 10.8
59 | Cl.O=C(O)c1ccccc1N/N=C\c1ccnc2ccccc12 | 18.1
60 | Cc1ccccc1N1CCN(CC(=O)Nc2nc(C)c(C(=O)N(C)C)s2)CC1 | 2.02
61 | COc1ccc(OC)c(S(=O)(=O)Nc2ccc(C(C)=O)cc2)c1 | 0.161
62 | CNC(=O)c1nnn(Cc2ccccc2)c1NC(=O)C(F)(F)F | 22.9
63 | COc1ccccc1/C=C/C(=O)NCC(=O)N/N=C/c1ccccc1[N+](=O)[O-] | -36.9
64 | CNc1ccc(S(=O)(=O)NCC(=O)OC(C)C(=O)N(C)Cc2ccccc2)cc1[N+](=O)[O-] (stereo not drawn) | -1.57
65 | CC(=O)c1ccc(OCC(O)CN2CCN(CCN3C(=O)c4cccc5cccc(c45)C3=O)CC2)cc1.Cl (stereo not drawn) | -34.1
66 | CC1(C)C([N+](=O)[O-])C(c2ccc(Cl)cc2)NC(c2ccc(Cl)cc2)C1[N+](=O)[O-] (stereo not drawn) | 19.7

Row | SMILES | hERG current change (%, negative = inhibition) at 10uM [%]
67 | CCCNS(=O)(=O)c1ccc(OCC(=O)N2CCC(C(=O)OCC)CC2)cc1 | -12.6
68 | COc1ccc(N2C(=O)c3ccccc3NC2c2ccc(OC)c(Cn3nnc4ccccc43)c2)cc1 (stereo not drawn) | -8.85
69 | O=Cc1cccc(OC(=O)c2ccc(Cl)cc2Cl)c1 | 14.9
70 | Cc1nc(-c2cccc(NC(=O)c3ccc(-n4nccc4C)cc3)c2)cs1 | -3.31
71 | CC(=O)O[C@H]1CCC2C3CCC4=CC(=O)CCC4=C3C=C[C@@]21C (stereo partly drawn) | 3.64
72 | CCC(=O)Nc1ccc(C(=O)NNC(=O)c2cc(OC)c(OC)c(OC)c2)cc1 | 17
73 | COCC(=O)Nc1ccc(C(=O)Nc2ccccc2Cl)cc1 | -4.02
74 | Cc1cccc(C)c1NC(=O)N1CCCCCCC1 | 11.1
75 | COc1ccc2nc(SCC(=O)NC(C)C)[nH]c2c1 | 17.3
76 | Cc1coc2cc3oc(=O)c(CCC(=O)NCCCN4CCCC4=O)c(C)c3cc12 | 3.48
77 | Cc1ccc(C)c(NC(=S)NCCSc2ccc(Cl)cc2)c1 | 11.9
78 | O=C(NCc1ccc(C(F)(F)F)cc1)C1CC(c2ccc(C(F)(F)F)cc2)=NO1 (stereo not drawn) | 6.74
79 | Cc1ccccc1NC(C)C(=O)N/N=C/c1c[nH]c2ccccc12 (stereo not drawn) | 42.7
80 | COc1ccccc1-c1cn[nH]c1-c1ccc(OCc2ccccc2F)cc1O | 9.77
81 | CC(C)n1nnnc1SCC(=O)NC1CCCC1 | 14.3
82 | CC(=O)C1=C(C)NC(=O)CC1c1ccccc1Cl (stereo not drawn) | -1.65
83 | COc1cccc(NS(=O)(=O)c2ccc3c(c2)N(C(C)=O)CCS3)c1 | 2.67
84 | COc1cccc2cc(C(=O)N3CCCCC3C)c(=O)oc12 (stereo not drawn) | -2.3
85 | O=C(Cc1c(F)cccc1Cl)Nc1nc2ccccc2s1 | -14.5
86 | O=C(O)CCSC(=S)N1CCOCC1 | -10.3
87 | CCOC(=O)c1ccc(NC(=S)N2CCN(CCNC3=CC(=O)CC(C)(C)C3)CC2)cc1 | -4.36
